Assay results taken from the supplement of paper PMC10126150.
Sequences with one replicate were seen in a single cluster, so their values are uncertain.

Test system: ATP
Test: switch fluorescence ratio, 500 uM ATP over buffer (Cy3 cluster intensity, sum of 5 cycles each) (fold (ratio)); higher = stronger signal-on switching upon ATP binding; sequences stand for … in TCGTCGGCAGCGTCAGATGTGTATAAGAGACAGTTTTTTTTTTTTTTTTTTTTTTTTT…TC
Settings: aptamer strand: ATP DNA aptamer (quencher-CACCTGGGGGAGTATTGCGGAGGAAGG + anchor), 100 nM annealed; ATP concentration: 500 uM; one replicate
How it was run: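 Imaging in selection buffer was followed by imaging after 15 min with 500 uM ATP at 22 °C, for Cy3-labelled switching-strand clusters annealed to 100 nM quencher-labelled ATP aptamer on a modified Illumina MiSeq flow-cell. Five of these buffer/ATP cycles ran, separated by NaOH stripping and re-annealing. The fluorescence ratio per cluster is summed target-cycle over summed buffer-cycle Cy3 intensity, averaged per switch-domain sequence; clusters outside 100-1000 RFU were removed.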
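Note: ATP exposure 15 min at 22 °C before imaging.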

Sequence	switch fluorescence ratio
GCTGGAACAT	0.961
ACTTACGTGT	1.34
AGTGTAGTT	0.991
ATTAAGGATA	1.01
CCGGACCCCG	1.06
TTAGGGCCAC	0.992
GCATAGCGTT	0.995
TGGTGTGCGC	0.966
AACTCGGTTG	0.973
TTGCATGGTA	1.02
GAAAGTAATC	1.05
CTTCACTGGA	1.24
GCATGAGCTA	1.01
CTGTGTTCCT	1.03
CTCTGCTAAT	4.89
AATTCTGGCG	0.965
TGACCGTCCG	1.08
CGGGTGTGCA	1.07
ATACGCCCTC	1.31
TTACTGCGTT	0.974
CGTATACTTC	1.1
AGCTATCGAT	0.944
TCGTAATTCA	1.15

Sequence	switch fluorescence ratio
AGGATGGGCC	0.982
CCCGGCTGTG	1.07
GTTATTAGAT	0.962
GTGTATTCGT	0.996
TTCGGCGTT	1.04
CAAGCGGCG	1.05
CTACCTTTTG	1
TACGCACCCC	1.08
TGCGGAAGAG	1.05
AGCATAAGA	0.995
GCGCTATGGT	1.11
GTGTAAGTTC	1.01
AGTACTGGT	1.02
AATTTTCCGA	1.1
AGCAAATCGG	1.05
TGAAGGCAGC	1.05
CATCAGAATG	0.945
TATACTTG	1.01
TGGTTAAACG	0.99
CTTACTGCTA	1.18
ATGATATACA	0.934
CTTGGTTCAT	0.999
TTGAGTGCGT	1

Sequence	switch fluorescence ratio
GCGTCTATCT	0.963
AGCTTTCGAG	1.09
TCCAGTTCTC	1.01
ATTGGCGCAA	1.62
TAGTCGATTC	1.02
TCGAGACTGT	1.01
CTCATAAAGA	0.998
CCGGGCTTGA	0.993
CGTTATTTG	0.952
CGGGTTTGTA	0.986
TAGTTGAAGA	1.01
TCCAATAAAC	1.19
ACCAATTTCG	1.02
TCACTATTCT	0.947
AAGTGCCAGT	0.974
GGCTAATTAG	1.14
TACATCTAGG	0.946
AAGAATAGTA	0.957
AGAAGGCAGT	0.98
GACGCTCTAA	1.6
TTGGAGGATA	0.984
TAGGTCCGTA	1.02
GCTAGAAGCC	0.912

Sequence	switch fluorescence ratio
TTCTGGCGTT	1.07
GAGGAGAATG	0.981
CAAATACTCT	1.17
CTGCTCAGGC	1.03
ATGGGATTAC	1.04
TGGGCACCGA	1.07
GGTCTCAGGA	0.974
TTTGTAGATT	0.98
GACTATCGGC	0.994
GTAAGGGAGC	0.966
CTAAGGATCT	1
GGAGAATCCG	1.05
AAGGCGCTCG	1.02
ATGAAAGATT	0.995
AGGGTTGCCT	0.956
AAGAGCGTTA	1
ATTCGTGGCG	0.871
TGCAGAAAAG	0.984
TTTGTGATAC	1.7
GGCCACGATT	0.951
GGTATTACTA	0.986
ACTGCACATA	1.42
AATAGGCATT	0.978

Sequence	switch fluorescence ratio
GACCAATTAG	1.01
TATACATGGT	1.01
TGGATCTGGT	0.978
GTTTGATCCG	0.944
ACTTTGCCTC	1.03
GCTCGTATTG	0.995
TAGATAATC	0.944
ATCAAGGAAC	1
TAGATACGGT	0.975
TCCAATTTGG	1.02
TCGGTGGCGA	1
TATCTACG	1
CCTATCTCGT	0.998
TCGAGCGAGG	0.959
CCTAATTGTT	1.11
TAACTGACTT	1.04
TTGGAATTA	1.01
AAATTTGCTA	0.961
CCGTCCGTTC	2.6
AGGTCTGGTC	0.969
AGCGTAAGGA	1.01
ATCTGCTCGA	1.01
GAGTGGGG	1.02

Sequence	switch fluorescence ratio
TCATCAATTA	0.982
CCAAAAGGTG	2.59
GGACACGGGC	1.02
GCGTCGGGGC	0.925
TCCTGTCAAG	1.02
GGTATGGGAA	0.941
AGTTTTCCCG	0.969
GTAGGGATA	0.962
GCTATAACGA	1.13
GGGTGACGTT	1
GCATCACTTG	1.01
TTAACTGTTG	1.03
AAGTACCGGC	1.03
TATACGAGC	1.02
TCTCGTCCGG	1.08
AGGCCCGTAT	1.11
GATTTTAGGT	1.03
AGCATTCATT	0.957
TAATGCAAGT	1
AGTTAGAACA	1.06
TGGTGTAGAC	0.99
GATTAAGAC	0.997
TGTGAAATTT	0.993

Sequence	switch fluorescence ratio
TGACGTATGG	1.02
ACACACGGGC	1.49
AGGTGGCAAT	1.18
CAATCGTG	0.969
CGTTGTGTTT	0.977
AAAGTGTGAT	0.948
TGCTGCTGCT	0.961
AATCCACCAG	2.53
TTACATGTGG	1.01
TAATGGACCA	1.03
ATCTACCTCA	1.02
CATGAAAGCG	1.02
CGGGCATTCA	0.984
GATCAATAAA	0.981
TCTACCGCCA	2.25
GAATGAGCAG	1.03
AATTCAAATC	1.02
AACTTAATTT	1.02
CCTTTGCTCT	1.4
